The text below walks through data of the supplement of paper PMC7125110.

B1: glmS ribozyme (parent)
chain: AUAAAAGCGCCAGAACUACAGAAAUGUAGUUGACGAGGAGGAGGUUUAUCGAAUUUUCGGCGGAUGCCUCCAAA

± gives the standard error. Variants at the background level are over-represented here.

The variants in the first data set derive from B1. As to the kind of experiment: self-cleavage kobs at 160 uM GlcN6P; higher = faster cleavage; RNA array. The settings on record: with glucosamine-6-phosphate. In short, it runs like this: (§1)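 Using a hybridised Cy3 probe at 37 °C, barcoded ribozyme variants transcribed in situ by E. coli RNA polymerase on sequenced MiSeq chips were monitored across tiles imaged over ~14 h. The flow contained glucosamine-6-phosphate from 40 μM to 10 mM in HEPES/KCl/Mg(OAc)2 buffer. Signals were normalised to baseline and to non-cleaving reference variants before per-tile medians were fit to one- or two-exponential decays to yield kobs. Weighted Michaelis–Menten fits across concentrations gave kcat and KM.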
For AUAAAAGCGCCAGAACUACAGAAAUGUAGCUGACGAGGAGGAGGUGUAUCGAAAUUUCGGCGGAUGCCUCCAAA [U30C U46G U54A], the “self-cleavage kobs at 160 uM GlcN6P” value is less than 1e-05 s⁻¹.

Consider AUAAAAGCGCCAGAAGUACAGAAAUGUAGUUGACGAGGAGGAGGUUUAUCGAAUUUACGGCGGAUGCCUCCAAA [C16G U57A], for which the “self-cleavage kobs at 160 uM GlcN6P” value is less than 1e-05 s⁻¹.

Consider AUAAAAGCGCCAGAAUUACAGAAAUGUAGUUCACGAGGAGGAGGUUUAUCGGAUUUUCGGCGGAUGCCUCCAAA [C16U G32C A52G], for which the “self-cleavage kobs at 160 uM GlcN6P” value was less than 1e-05 s⁻¹.

For AUAAAAGCGCCAGAACUACAGAAAUUUAGUUGACGAGGAGGAGCUUUAUCGAAUAUUCGGCGGUUGGCUCCAAA [G26U G44C U55A A64U C67G], the “self-cleavage kobs at 160 uM GlcN6P” value is less than 1e-05 s⁻¹.

For AUAAAAGCGCCAGAUCUACAGAAAUGUAGGUGACGAGGAGGAGGUUUAUCGAAUUUUCCGCGGAAGCCUCCAAA [A15U U30G G59C U65A], the “self-cleavage kobs at 160 uM GlcN6P” value is less than 1e-05 s⁻¹.

On to AUAAAAGCGCCAGAAGUACAGAAAUGUAGUUGACGAGGAGGAGGUUUAUCGAAUUUUCGUCGGAUGCCUCCAAA [C16G G60U], for which the “self-cleavage kobs at 160 uM GlcN6P” value was less than 1e-05 s⁻¹.

For the variant AUAAAAGCGCCAGAAUUACAGAAAUGUAGUUGACGAGGAGGAGGUUUAUCGAAUUUUCGGCUGAUGCCUCCAAA [C16U G62U], the “self-cleavage kobs at 160 uM GlcN6P” value is less than 1e-05 s⁻¹.

For the variant AUAAAAGCGCCAGAACUACAGAAAUGUAUUUUACGAGGAGGGGGUUUAUCGAAUUUUCGGCGGAUGCCUCAAAA [G29U G32U A42G C71A], the “self-cleavage kobs at 160 uM GlcN6P” value is less than 1e-05 s⁻¹.

As for AUAAAAGCGCCAGAAAUACAGAAAUGUAGUUGAUGAGGAGGAGGUUUAUCGAAUUUUCGGCGGAUGCCUCUAAA [C16A C34U C71U], the “self-cleavage kobs at 160 uM GlcN6P” value is less than 1e-05 s⁻¹.

As for AUAAAAGCGCCAGAAUUACAGAAAUGUAGUGGACCAGGAGGUCGUUUAUCGAAUUUUCGGCGUAUGCCUCCAAA [C16U U31G G35C A42U G43C G63U], the “self-cleavage kobs at 160 uM GlcN6P” value was less than 1e-05 s⁻¹.

Regarding AUAAAAGCGCCAGAACUACAGAAAUGUAGUAGCCGAGGAGGAGGUUUAUCGAAUUUUCGGCGGAUGCCUCCAAA [U31A A33C], the “self-cleavage kobs at 160 uM GlcN6P” value was less than 1e-05 s⁻¹.

AUAAAAGCGCCAGAACUACAGAAAUGUACUUGACGAGGUGGAGGUUUAUCGAAUUUUCAGCGGAUGCCUCCAAA [G29C A39U G59A]: the “self-cleavage kobs at 160 uM GlcN6P” value is less than 1e-05 s⁻¹.

As to AUAAAAGCGCCAGAAAUACAGAAAUGUAGUUGACGAGGAGGAGGUGUGUUGAAUUUUCGGCGGAUGACUCCAAA [C16A U46G A48G C50U C67A], the “self-cleavage kobs at 160 uM GlcN6P” value is less than 1e-05 s⁻¹.

Consider AUAAAAGCGCCAGAACUACAGAAAUGUAGUAGACGAGGAGGAGGUUUAUCGCAUUUUCGGCGGAUGCCUCCAAA [U31A A52C], for which the “self-cleavage kobs at 160 uM GlcN6P” value was less than 1e-05 s⁻¹.

AUAAAAGCGCCAGAACUACAGAAAUGUAGACGACGAGGAGGAGGUUUAUCGAAUUUUCGACGGAUGCCUCAAAA [U30A U31C G60A C71A]: the “self-cleavage kobs at 160 uM GlcN6P” value is less than 1e-05 s⁻¹.

For the variant AUAAAAGCGCCAGAUCUACAGAAAUGUAGUUGACGAGGAGGAGGUUUAUCAAAUUUUCGACGGAUGCCUCCAAA [A15U G51A G60A], the “self-cleavage kobs at 160 uM GlcN6P” value was less than 1e-05 s⁻¹.

Turning to AUAAAAGCGCCAGAACUACAGAAAUGUAUUUGACGAGGAGGAGGUUUUUCGAUUUUUCGGCGGAUGCCUCCAAA [G29U A48U A53U], the “self-cleavage kobs at 160 uM GlcN6P” value was less than 1e-05 s⁻¹.

AUAAAAGCGCCAGAAAUACAGAAAUGUAGUUGACGAGGAGGAGGUUUACCGAAUUUUCGGCGGCUGCCUCCAAA [C16A U49C A64C]: the “self-cleavage kobs at 160 uM GlcN6P” value is less than 1e-05 s⁻¹.

For the variant AUAAAAGCGCCAGAACUACAGAAAUGUAAUAGACGAGGAGGAGGGUUAUCGAAUUUUCGGCGGAUGCCUCCAAA [G29A U31A U45G], the “self-cleavage kobs at 160 uM GlcN6P” value was less than 1e-05 s⁻¹.

Turning to AUAAAAGCGCCAGAACUACAGAAAUGUAGCUGACGAGGAGGACGUUUAUCGAAUUUUCGGCGGAUGCGUCCAAA [U30C G43C C68G], the “self-cleavage kobs at 160 uM GlcN6P” value stood at 7.51e-05 ± 2.2e-05 s⁻¹.

As to AUAAAAGCGCCAGAACUACAGAAAUGUAGAUGACGAGGAGGAGGUUCAUCGAAUUUUCGGCGGAUGCCUGCAAA [U30A U47C C70G], the “self-cleavage kobs at 160 uM GlcN6P” value was less than 1e-05 s⁻¹.

As to AUAAAAGCGCCAGAAAUACAGAAAUGUACUUGACGAGGAGGAGGUUUAUCGAAUUUUUGGCGGAUGCCUCCAAA [C16A G29C C58U], the “self-cleavage kobs at 160 uM GlcN6P” value was less than 1e-05 s⁻¹.

Regarding AUAAAAGCGCCAGAACUACAGAAAUGUAAUUGACGAGGAGUAGGUUUAUCGAAGUUUCGGCGGAGGCCUCCAAA [G29A G41U U54G U65G], the “self-cleavage kobs at 160 uM GlcN6P” value was less than 1e-05 s⁻¹.

In the case of AUAAAAGCGCCAGAACUACAGAAAUGUAGAUGACGAGGAGGAGGUUUCUCGAAUUUUCGGCGGAUGGCUCCAAA [U30A A48C C67G], the “self-cleavage kobs at 160 uM GlcN6P” value was less than 1e-05 s⁻¹.

Regarding AUAAAAGCGCCAGAAUUACAGAAAUGUAGUUGAGGAGGAGGAGGUUUAUUGAAUUUUCGGCGGAUGCCUCCAAA [C16U C34G C50U], the “self-cleavage kobs at 160 uM GlcN6P” value was less than 1e-05 s⁻¹.

Turning to AUAAAAGCGCCAGAACUACAGAAAUGUAGGUCACGAGGAGGAGGUUUAUCGAAUUUACGGCGGAUGCCUCCAAA [U30G G32C U57A], the “self-cleavage kobs at 160 uM GlcN6P” value was less than 1e-05 s⁻¹.

AUAAAAGCGCCAGAACUACAGAAAUGUAGUAGACGAGCAGGAGGUUUAUCGAAUUUUCGGCGGAUGCCUCCAAA [U31A G38C]: the “self-cleavage kobs at 160 uM GlcN6P” value was less than 1e-05 s⁻¹.

AUAAAAGCGCCAGAACUACAGAAAUAUAGUUGACGAGGAGGAGGUUUAUCGAAUUUUCGGCGGAUGCCUACAAA [G26A C70A]: the “self-cleavage kobs at 160 uM GlcN6P” value amounted to 0.000106 ± 2.6e-05 s⁻¹.

Turning to AUAAAAGCGCCAGAACUACAGAAAUGUAGCUGAAGAAGAGGAGGUUUAUCGAAUUUUCGGCGGAUGCCUCCAAA [U30C C34A G37A], the “self-cleavage kobs at 160 uM GlcN6P” value was less than 1e-05 s⁻¹.

Consider AUAAAAGCGCCAGAACUACAGAAAUGUAUGUGACGAGGUGGAGGUUUAUCGAAUUUUCGGCGGAUGCCUCCAAA [G29U U30G A39U], for which the “self-cleavage kobs at 160 uM GlcN6P” value was determined as 8.86e-05 ± 2.1e-05 s⁻¹.

Variants of B1 are the subject of the next data set. As to the kind of experiment: self-cleavage kobs at 2500 uM GlcN6P; higher = faster cleavage; RNA array. The settings on record: with glucosamine-6-phosphate. A digest of the protocol: as §1
With AUAAAAGCGCCAGAUCUACAGAAAUGUAGGUGACGAGGAGGAGGUUUAUCGAAUUUUCCGCGGAAGCCUCCAAA [A15U U30G G59C U65A], the “self-cleavage kobs at 2500 uM GlcN6P” value is less than 1e-05 s⁻¹.

For AUAAAAGCGCCAGAAGUACAGAAAUGUAGUUGACGAGGAGGAGGUUUAUCGAAUUUUCGUCGGAUGCCUCCAAA [C16G G60U], the “self-cleavage kobs at 2500 uM GlcN6P” value was less than 1e-05 s⁻¹.

As for AUAAAAGCGCCAGAAUUACAGAAAUGUAGUUGACGAGGAGGAGGUUUAUCGAAUUUUCGGCUGAUGCCUCCAAA [C16U G62U], the “self-cleavage kobs at 2500 uM GlcN6P” value is less than 1e-05 s⁻¹.

For AUAAAAGCGCCAGAACUACAGAAAUGUAGUAGACGAGGAGGAGGUUUAUCGCAUUUUCGGCGGAUGCCUCCAAA [U31A A52C], the “self-cleavage kobs at 2500 uM GlcN6P” value is less than 1e-05 s⁻¹.

For the variant AUAAAAGCGCCAGAACUACAGAAAUGUAUGUGACGAGGUGGAGGUUUAUCGAAUUUUCGGCGGAUGCCUCCAAA [G29U U30G A39U], the “self-cleavage kobs at 2500 uM GlcN6P” value is 0.0013 ± 0.00029 s⁻¹.

A further data set covers variants of B1. As to the kind of experiment: self-cleavage kobs at 10000 uM GlcN6P; higher = faster cleavage; RNA array. Particulars: with glucosamine-6-phosphate. In short, it runs like this: as §1
In the case of AUAAAAGCGCCAGAAGUACAGAAAUGUAGUUGACGAGGAGGAGGUUUAUCGAAUUUUCGUCGGAUGCCUCCAAA [C16G G60U], the “self-cleavage kobs at 10000 uM GlcN6P” value was less than 1e-05 s⁻¹.

With AUAAAAGCGCCAGAAUUACAGAAAUGUAGUUGACGAGGAGGAGGUUUAUCGAAUUUUCGGCUGAUGCCUCCAAA [C16U G62U], the “self-cleavage kobs at 10000 uM GlcN6P” value is less than 1e-05 s⁻¹.
